Holding throughout (test): pull-down; GST fusion proteins immobilized on glutathione-Sepharose 4B beads, incubated overnight at 4°C with lysates of transfected HEK293 cells (PBS, 1% Triton X-100, 1 mM EDTA, pH 7.4); western blot; only the target purified
Assay [1] deals with T1, GST C-terminal (Myo9a amino acids 2330-2626 fused to GST) (rat) (UniProt Q9Z1N3).
T1 sequence: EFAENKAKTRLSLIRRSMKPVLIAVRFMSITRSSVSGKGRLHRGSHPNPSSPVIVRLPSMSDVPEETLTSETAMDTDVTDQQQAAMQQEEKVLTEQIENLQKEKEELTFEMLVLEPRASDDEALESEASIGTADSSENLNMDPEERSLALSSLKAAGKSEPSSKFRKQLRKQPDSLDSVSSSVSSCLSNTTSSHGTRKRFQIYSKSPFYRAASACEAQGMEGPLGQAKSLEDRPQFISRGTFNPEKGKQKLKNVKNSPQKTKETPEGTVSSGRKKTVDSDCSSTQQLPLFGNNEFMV

Sequences of proteins named here, by UniProt entry; tags and fusion partners are left off. Residues count along the entry.
UniProt P19490, residues 19-907: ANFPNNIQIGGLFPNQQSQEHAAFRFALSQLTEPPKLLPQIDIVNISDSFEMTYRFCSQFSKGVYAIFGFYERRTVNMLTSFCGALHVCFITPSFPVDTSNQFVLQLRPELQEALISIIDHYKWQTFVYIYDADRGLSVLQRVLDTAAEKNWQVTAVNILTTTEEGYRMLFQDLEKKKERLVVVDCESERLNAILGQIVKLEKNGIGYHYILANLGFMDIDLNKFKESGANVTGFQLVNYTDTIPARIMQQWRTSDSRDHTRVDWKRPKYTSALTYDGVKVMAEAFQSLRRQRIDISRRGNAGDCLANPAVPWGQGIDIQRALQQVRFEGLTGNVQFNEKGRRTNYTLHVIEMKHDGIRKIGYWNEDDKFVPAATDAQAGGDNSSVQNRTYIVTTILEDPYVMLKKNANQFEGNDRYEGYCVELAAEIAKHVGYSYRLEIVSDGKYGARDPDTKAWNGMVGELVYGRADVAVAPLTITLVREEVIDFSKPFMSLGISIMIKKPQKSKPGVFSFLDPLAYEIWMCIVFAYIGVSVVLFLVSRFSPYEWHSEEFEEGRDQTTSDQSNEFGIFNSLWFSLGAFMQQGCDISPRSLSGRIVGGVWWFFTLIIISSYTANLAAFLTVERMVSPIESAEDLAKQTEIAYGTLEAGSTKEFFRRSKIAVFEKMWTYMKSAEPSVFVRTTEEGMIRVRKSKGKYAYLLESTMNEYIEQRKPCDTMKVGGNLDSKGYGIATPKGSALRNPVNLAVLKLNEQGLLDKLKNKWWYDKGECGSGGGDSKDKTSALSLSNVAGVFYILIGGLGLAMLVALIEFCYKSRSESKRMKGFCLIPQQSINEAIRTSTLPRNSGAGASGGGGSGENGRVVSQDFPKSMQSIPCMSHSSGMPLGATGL
UniProt P19491, residues 22-883: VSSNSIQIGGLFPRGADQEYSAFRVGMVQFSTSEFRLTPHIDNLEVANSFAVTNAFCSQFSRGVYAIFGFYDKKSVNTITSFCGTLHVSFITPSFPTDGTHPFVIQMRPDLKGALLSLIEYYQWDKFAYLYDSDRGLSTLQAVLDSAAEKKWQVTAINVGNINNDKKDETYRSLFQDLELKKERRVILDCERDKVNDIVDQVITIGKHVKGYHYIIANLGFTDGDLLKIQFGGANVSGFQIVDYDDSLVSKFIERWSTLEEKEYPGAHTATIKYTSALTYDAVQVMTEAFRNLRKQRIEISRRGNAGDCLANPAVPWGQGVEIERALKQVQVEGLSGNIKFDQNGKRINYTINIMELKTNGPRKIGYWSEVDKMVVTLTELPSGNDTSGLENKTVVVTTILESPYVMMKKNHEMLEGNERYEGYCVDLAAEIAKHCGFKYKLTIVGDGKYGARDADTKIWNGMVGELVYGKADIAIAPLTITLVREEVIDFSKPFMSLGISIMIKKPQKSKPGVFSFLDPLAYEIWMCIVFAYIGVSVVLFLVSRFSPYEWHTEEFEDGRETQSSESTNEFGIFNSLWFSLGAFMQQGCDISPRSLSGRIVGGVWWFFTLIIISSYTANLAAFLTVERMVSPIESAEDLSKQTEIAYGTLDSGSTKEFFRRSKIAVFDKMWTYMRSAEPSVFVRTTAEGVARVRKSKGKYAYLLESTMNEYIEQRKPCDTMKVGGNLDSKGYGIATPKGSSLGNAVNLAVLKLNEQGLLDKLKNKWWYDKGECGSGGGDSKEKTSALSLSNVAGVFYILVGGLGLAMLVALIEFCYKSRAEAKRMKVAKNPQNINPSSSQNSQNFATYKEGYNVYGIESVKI

Assay [2] addresses T2, GST N-terminal (Myo9a amino acids 2-130 fused to GST) (rat) (UniProt Q9Z1N3).
T2 sequence: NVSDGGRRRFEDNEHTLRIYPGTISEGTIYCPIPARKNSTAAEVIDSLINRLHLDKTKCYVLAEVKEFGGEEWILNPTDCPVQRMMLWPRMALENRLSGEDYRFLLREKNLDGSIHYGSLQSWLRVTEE

Assay [3] concerns the target T3, GST Rho-GAP (Myo9a amino acids 2135-2338 fused to GST) (rat) (UniProt Q9Z1N3).
T3 sequence: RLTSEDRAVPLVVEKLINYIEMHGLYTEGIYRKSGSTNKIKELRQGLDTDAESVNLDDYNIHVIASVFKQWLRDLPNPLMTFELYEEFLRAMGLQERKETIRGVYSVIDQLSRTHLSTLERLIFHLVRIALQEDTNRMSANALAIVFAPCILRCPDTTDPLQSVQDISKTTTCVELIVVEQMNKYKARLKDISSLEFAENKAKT

The record followed here is publication PMC4719083, “Myosin IXa Binds AMPAR and Regulates Synaptic Structure, LTP, and Cognitive Function” (Frontiers in Molecular Neuroscience, 2016).

No constants are given. Whether binding was seen depends on the method and setting. In cells and extracts the contact can be indirect. Some results given as binding are weak or reduced against the parent protein; the word gives no strength. Tags and fused reporters may be left off the sequences shown.

Turning to “GluA1 (rat) expressed in HEK293 cells (from UniProt P19490 19-907) (receptor)”, the binding result in assay [1], in assay [2] and in assay [3] was “no binding” in each case.

As for “GluA2 (rat) expressed in HEK293 cells (from UniProt P19491 22-883) (receptor)”, the binding entry in assay [1] is “binds”; in assay [2], “no binding”; in assay [3], “no binding”.
